Some of the results follow. At the low end of the ranking the order means little.
Each sequence was assayed on T1, GST-NbGlk1(82-244) (assay: protein-binding microarray). Conditions: NbGlk1 is a Golden2-like transcription factor of Nicotiana benthamiana; high values mean tight binding; most listed sequences are background and not binding sites; double strand, one strand shown.
T1 sequence: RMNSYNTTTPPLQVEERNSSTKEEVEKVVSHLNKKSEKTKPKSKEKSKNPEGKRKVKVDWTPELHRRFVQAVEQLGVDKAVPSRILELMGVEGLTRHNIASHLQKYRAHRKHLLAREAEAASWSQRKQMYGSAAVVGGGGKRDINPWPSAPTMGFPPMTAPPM
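Note: rank-based score ranging −0.5 to +0.5 with E above 0.45 taken as significant binding.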

Sequence	binding signal [E-score]
ACAGGATG	-0.18
ATATACGA	0.236
AGGAGGCG	-0.259
ATCTTGTG	0.318
AAGTAGCG	-0.0266
CACGTAAA	-0.0233
AGGCGATG	-0.149
ATGGCTGC	-0.188
ATCCAAAG	0.246
ATGGACAC	-0.0337
ACCAAGGG	-0.222
ATGACACG	-0.0789
AGCTTTTC	-0.0883
AAAGTCGT	0.0123
AGGATAAT	0.238
AAAGTTAG	-0.0475
ACAAATCC	0.337
CACATTCC	0.162
ATCGCCTG	0.149
AGACAAGA	0.0454
AGCCGGCG	-0.285
AAAACGTG	-0.144
ACCCTACT	-0.0313
ACACTTCC	-0.00371
AACTAGTA	-0.0582

Sequence	binding signal [E-score]
AGGCGGGC	-0.252
CAAACCCA	-0.126
CACAGTCC	-0.16
AAAGCGAG	-0.0323
AATCGAAC	0.213
ACGCTTCA	-0.116
AATGGACA	-0.0091
ACATCCAC	0.0579
AGAATTGG	-0.0169
CACCCAGA	-0.0163
AAAGAGCT	-0.241
AATATAAA	0.254
CAAACACA	0.0306
AGTGTCGC	-0.0439
ACTTTCTC	-0.0359
ACGGTTTC	-0.173
CACCGGCA	-0.261
ACTGATTG	0.207
CAGAGTAC	-0.264
ACTGCATC	-0.0476
ATGTTGCA	0.0286
AGCTAAAC	-0.114
ACATCGAA	0.0681
ACTCCTCA	-0.235
ACAATGAG	-0.0284

Sequence	binding signal [E-score]
CACCGCGA	0.00808
ATACCCCA	0.0124
CACTTCTG	-0.066
AGAAGAAG	-0.084
ATTCTATC	0.261
AGTAGACA	-0.0649
AACTCCCT	-0.215
AAAGGGGG	-0.171
AGGATTGA	-0.0796
ACGGTTAC	0.00366
AACATTAT	0.0473
AACAGTCC	-0.12
AAGACCCT	-0.264
AGATATTC	0.451
AAGAACCT	-0.154
AGAAGGTA	-0.0371
ACCCATTA	0.0818
AGACGAAA	0.03
ATTGCAAC	0.0997
ATACTACG	0.0656
AATGCCGG	-0.0722
AGACTTTC	-0.181
ATGCCGGG	-0.115
ACCAGTTG	-0.0523
ACGGGCGA	0.0516

Sequence	binding signal [E-score]
AAAGCCAC	-0.186
AGGCCCGA	-0.205
CACCCGGG	-0.277
AGTACTCG	-0.182
AACTTTCT	-0.101
AATGTGGC	-0.0671
ACGCCTAT	-0.162
AAGGTTAC	-0.158
CACAAAGA	0.111
AGCAATCG	0.308
ATATATAG	0.145
AATGGTCA	-0.0407
AAGTTGTA	0.0647
AGAACTGG	-0.021
ACCCATGG	-0.217
ACCGCTAA	-0.0946
ACCACGGA	0.00649
AGAACAAA	0.0155
ACGTGGGA	-0.00296
AACAGATC	0.305
AGGTCACT	-0.15
ATAATGGG	0.0867
ATGTTATA	0.103
ATAGAAAT	0.249
ACTGTCTC	-0.222

Sequence	binding signal [E-score]
CACATCAA	-0.0693
AGCTAAGG	-0.25
ACTAGCAC	-0.164
ATCTACTC	0.228
AAAAAGAT	0.248
ATAACTGC	0.0652
ATCCAGAA	0.288
ATTCACAA	0.218
ATGGTAGC	-0.0955
CACTGAGG	-0.207
AATGCCTG	-0.108
AGGCGGAC	-0.191
AAACTTAC	0.0331
AACTGTTC	-0.114
ATCATTGC	0.109
AGGGTTAG	-0.196
AAGAGACT	-0.158
AGAGTCCA	-0.219
ACTACCTA	-0.0397
AACTGCCA	-0.199
ATTGGTCC	-0.173
ATCCCAAG	0.206
AATACACC	0.0683
ATATTGGA	0.241
AATGGCCG	-0.194

Sequence	binding signal [E-score]
ACGAACGT	-0.196
ATCCATAC	0.188
ATGAAGCG	-0.0903
ATACACAG	0.0651
AAAATCAG	0.381
AGAGGAGG	-0.247
ACCTGCGC	-0.155
AGTCCAAC	-0.221
ATACTGCA	0.18
ACTAAGTG	-0.129
ATGACAGC	-0.0999
ACGCCTTA	-0.0918
ACGGTTCA	-0.129
ATGTGCCG	-0.00783
ACGCCTAA	-0.0313
ATACTCCG	0.101
ACATGTCT	-0.128
CAACGTGA	-0.117
AAGAAAGC	-0.167
ACGGGGAC	-0.279
AGCTGCAC	-0.094
ATTCGGAG	0.135
CAATATGC	-0.0381
ATCCGCAC	0.284
AAATTAAG	0.148

Sequence	binding signal [E-score]
AAAGAATA	0.113
AATACAAT	0.174
ATGCTTTG	-0.0436
CACTCTCG	-0.26
ATATGCTC	0.187
AGGGAGGG	-0.137
ACAACCGG	-0.108
CAAATACG	0.225
AAGCTCGC	-0.256
ACCCTTTA	-0.0786
ACCTGGGG	-0.319
AAGGTGTC	-0.135
AATAGGGG	-0.0509
ATCCGCTC	0.271
ATGATGGG	-0.0669
AGAACAGC	-0.15
ATGACCAG	-0.132
ATAGGCTC	-0.0441
AACCTCAA	-0.0373
ACCGGACA	-0.113
ACAGAGTC	-0.255
AACCCCTA	-0.159
ATTTCATG	0.332
ACAGGGCC	-0.275
AAGATGAA	-0.0306

Sequence	binding signal [E-score]
AGAGAGAG	-0.152
AGACACAC	-0.0982
AGTGGCAC	-0.268
ACAACCAG	-0.0806
ATGCAAGG	0.013
AATTTTAA	0.174
ACGTACAC	-0.0052
CAAGTGGG	-0.177
ACCCGGTC	-0.273
ATGCCCAC	-0.00205
ACTGGATA	0.289
AGAACATA	0.0683
ACTCGATC	0.00759
AACCAAAT	0.193
AACCGAGG	-0.219
CACGTAGG	-0.12
ATCGCAAT	0.397
AATGTAGA	0.12
AGCACAGA	-0.102
CAAGGAGG	-0.257
ATAGCTAT	-0.0546
ACCGCCCT	-0.149
AGCCTGAT	-0.06
AACGGTGT	-0.0446
ATGCCAGC	-0.0804

Sequence	binding signal [E-score]
CAGCGCTC	-0.068
ACTATATG	-0.114
ATTACTCC	0.154
AGTGGGAC	-0.126
CAATTATC	0.161
AAGTTAAA	0.132
CACTAGAC	-0.0522
ACCAAAGT	-0.109
ACCATATG	-0.0119
ATACATAA	0.124
AACTTGAA	0.155
ACATTGGA	0.0946
ACTTTTGG	-0.204
AGCCTTTC	-0.156
CACCTCTC	-0.143
AAATCCGC	0.432
ACTGTGTG	0.00957
CAAGAACC	-0.19
AGTACCTA	-0.107

From PMC5836133
